From PubChem BioAssay AID1347070 (National Center for Advancing Translational Sciences (NCATS), 2019)
Screen size: about 94,000 compounds; about 20 (0.02%) were called active. Inconclusive results, whose numbers are uncertain, are shown with a selection of clear calls. Calls come from the whole dose curve; as a rule, active = well fitted activation curve with a large enough effect; inconclusive = small, poorly fitted or top-dose-only effect; inactive = flat fitted curve, though single readings scatter. Potencies of inconclusive entries are left out as doubtful fits.

Test: qHTS of alpha-syn Inhibitors: NCGC Sytravon Library Screen; for growth rescue (activation): 0% is about no effect
Settings: S. cerevisiae alpha-synuclein toxicity rescue, BacTiter-Glo growth, 24 h; growth rescue (activation): at 46.1 µM (top of the series)
Procedure, shortened: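 Growth restoration measured by BacTiter-Glo luminescence after 24 hr at 30 deg C; alpha-synuclein yeast, raffinose-pregrown to mid-log, were added at OD600=0.02 in galactose medium onto pinned compounds.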
Potency is the fitted concentration of half-maximal effect; tags give direction and shape of the fitted curve.

| Compound | growth rescue (activation) | Potency |
| --- | --- | --- |
| CN(C)c1ccc(/C=N/NS(=O)(=O)c2ccc(Br)cc2)cc1 | inconclusive: 34.6% [activator] | – |
| Cc1ccccc1NC(=O)c1ccc(F)c(S(=O)(=O)N(C)Cc2ccccc2)c1 | – | inconclusive [activator, single point] |
| COC(=O)c1sccc1S(=O)(=O)N1CCN(c2ccccc2)CC1 | – | inconclusive [activator, single point] |
| Cc1ccc(Cl)c2c1N[C@@H](c1ccc(C(=O)O)cc1)[C@H]1CC=C[C@@H]21 | inconclusive: -76.6% [activator] | – |
| Cc1ccnc(N2CCC(C(=O)NCc3ccccc3F)CC2)n1 | inactive: -5.57% | – |
| COc1cccc2[nH]c3c(=O)n(CCCN4CCOCC4)cnc3c12 | inconclusive: 54% [activator] | – |
| CCOc1ccc(-c2cn3c(n2)sc2cc(C(=O)NCCC4=CCCCC4)ccc23)cc1 | inactive: -4.18% | – |
| O=S(=O)(NCCc1csc(-c2ccc(F)cc2)n1)c1ccc(F)cc1F | – | inconclusive [activator, single point] |
| COc1ccccc1N1CCN(C(=O)CCSCc2ccccc2F)CC1 | inconclusive: 33.1% [activator] | – |
| Cc1ccc2nc(N3CCN(C(=O)C4COc5ccccc5O4)CC3)sc2c1 (centres undefined) | – | inconclusive [activator, single point] |
| Cc1ccc2c(=O)cc(C(=O)Nc3nc4ccc(Cl)cc4s3)oc2c1C | inactive: -9.48% | – |
| Cc1nc2c(-c3ccccc3)c(C)nn2c(C)c1CCC(=O)N1CCN(c2ccc(F)cc2)CC1 | – | inconclusive [activator, single point] |
| NC(=O)c1sc2nc3c(c(-c4ccco4)c2c1N)CCCC3 | inconclusive: 46.1% [activator] | – |
| O=C(NCCc1ccccc1)c1sc2ncccc2c1-n1cccc1 | – | inconclusive [activator, single point] |
| COc1ccc(Nc2cc(C(=O)NCCCN3CCN(c4ccc(OC)cc4)CC3)c3ccccc3n2)cc1 | inactive: 0.294% | – |
| O=C(CCn1cnnn1)Nc1ccc(F)cc1 | – | inconclusive [activator, single point] |
| CC(=O)c1sc(N)nc1C | inactive: -4.44% | – |
| CCOC(=O)c1ccc(N2CCN(c3ccccc3F)CC2)c(NC(=O)Nc2ccc(Cl)c(Cl)c2)c1 | – | inconclusive [activator, single point] |
| Cc1ccc2sc(N(Cc3cccnc3)C(=O)CCOc3ccccc3)nc2c1C | – | inconclusive [activator, single point] |
| COc1ccc(CN2C(=O)C(CC(=O)NCCCCc3ccccc3)CC(C(=O)N3CCOCC3)=C2C)cc1 (centres undefined) | inactive: 1.23% | – |
| Cc1ccccc1-c1nc(CS(=O)CC(=O)N2CCN(c3cc(Cl)ccc3C)CC2)c(C)o1 (centres undefined) | – | inconclusive [activator, single point] |
| COc1ccc(CCNC(=O)c2cnc3ccc(C)cn3c2=O)cc1OC | – | inconclusive [activator, single point] |

| Compound | growth rescue (activation) | Potency |
| --- | --- | --- |
| O=C(CSCc1ccc(F)cc1)N1CCc2c([nH]c3ccccc23)C1c1ccc(F)cc1 (centres undefined) | – | inconclusive [activator, partial curve] |
| Oc1cccc(NC(=S)Nc2ccc(SC(F)F)cc2)c1 | inconclusive: 69.3% [activator] | – |
| N#Cc1c(Nc2ccccc2Cl)s[nH]c1=O | inconclusive: 53.3% [activator] | – |
| Cc1c(Cl)cccc1NC(=O)C1CCCN(C(=O)c2cnn(-c3ccccc3)c2-n2cccc2)C1 (centres undefined) | – | inconclusive [activator, single point] |
| O=C(NCc1ccc(Cl)cc1)C(=O)NCC(c1cccnc1)N1CCN(c2ccccc2)CC1 (centres undefined) | – | inconclusive [activator, single point] |
| CCOCCc1nn2c(=O)cc(COC(=O)c3ccccc3Br)nc2s1 | inactive: 15.2% | – |
| O=C(NNC(=S)NC(=O)c1ccco1)c1ccc(F)cc1 | inconclusive: 34.3% [activator] | – |
| CCN(C(=O)C1CCCN(c2nc(-c3ccc(OC)cc3)no2)C1)c1ccc(OC)cc1 (centres undefined) | inactive: -9.06% | – |
| CCOC(=O)c1cnn(-c2cccc(Cl)c2)c1C1CCN(C(=O)OC(C)(C)C)CC1 | inactive: -14.3% | – |
| Cc1cc2c(n1-c1ccc(C(=O)NCC(C)c3ccccc3)cc1)CCCC2 (centres undefined) | inactive: -7.86% | – |
| Cc1cccc2sc(N(Cc3cccnc3)C(=O)C3CCCCC3)nc12 | – | inconclusive [activator, full curve] |
| CC(=O)c1ccc(NC(=O)c2c3c(nc4ccccc24)C(=O)N(C2CCCCC2)C3)cc1 | inactive: -9.81% | – |
| Cc1cc(C)c(Cn2c3ccccc3c3cnn(CC(=O)N4CCCCCC4)c(=O)c32)c(C)c1 | – | inconclusive [activator, single point] |
| Cc1nnc(SC(C(=O)c2ccccc2)c2ccccc2)[nH]c1=O (centres undefined) | inactive: 2.28% | – |
| CCCCN(CC)CCNC(=O)c1cc2c(=O)oc3ccc(C)cc3c2s1 | – | inconclusive [activator, single point] |
| CCCS(=O)(=O)c1c(Nc2ccccc2C)sc(C(=O)c2ccccc2)c1N | – | inconclusive [activator, single point] |
| COc1cccc(N2CCN(S(=O)(=O)c3ccc4[nH]c5c(c4c3)CCCC5)CC2)c1 | – | inconclusive [activator, single point] |
| Cc1cccc(N(C)C(=O)c2cc(S(=O)(=O)N3CCCC3)cn2C)c1 | – | inconclusive [activator, single point] |
| CC1C(=O)N(Cc2cn(CC3CCCCC3)nn2)CCS(=O)(=O)N1Cc1ccc(-c2ccc(Cl)cc2)cc1 (centres undefined) | inconclusive: 39.6% [activator] | – |
| COc1ccc(C(=O)N/N=C/c2sc3ccccc3c2O)cc1 | inconclusive: 101% [activator] | – |
| O=C(NC1(C(F)(F)F)C(=O)Nc2c1c(=O)[nH]c(=O)n2CCc1ccccc1)c1ccc(Cl)cc1Cl (centres undefined) | inactive: 1.19% | – |
| COc1ccccc1-c1cc2nc(C)c(CCC(=O)Nc3ccc(Br)c(C)c3)c(C)n2n1 | – | inconclusive [activator, single point] |
